Test results published in the supplement of paper PMC3334620.
In all, about 33,000 sequences were measured (“E-score (-0.5 to 0.5)”: median about -0.017, highest 2% from about 0.3 on). The list shows a part of the results.

Target: T1, Sut1 (UniProt P53032)
T1 sequence: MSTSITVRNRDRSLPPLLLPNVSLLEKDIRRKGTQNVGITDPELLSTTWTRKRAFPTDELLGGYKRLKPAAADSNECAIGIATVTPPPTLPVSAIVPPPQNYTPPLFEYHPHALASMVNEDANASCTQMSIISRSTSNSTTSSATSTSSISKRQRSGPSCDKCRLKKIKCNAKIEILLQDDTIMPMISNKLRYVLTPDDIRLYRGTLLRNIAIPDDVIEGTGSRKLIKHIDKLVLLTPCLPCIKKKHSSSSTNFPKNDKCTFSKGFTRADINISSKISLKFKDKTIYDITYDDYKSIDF
Test: PBM E-score (8-mer binding enrichment) (E-score (-0.5 to 0.5)); higher = stronger / more preferred TF binding; most listed sequences are background and not binding sites
Conditions: protein concentration: 200 nM; construct: GST-full length
Method: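 Universal 'all 10-mer' protein binding microarrays (Agilent AMADID 015681) probed with GST-tagged S. cerevisiae TFs (full-length or DBD) made by in vitro transcription/translation (PURExpress), about 100-200 nM. Bound TF was detected with fluorescent anti-GST. Each ungapped 8-mer (which stands for itself and its reverse complement) is scored by the PBM enrichment score (E-score), a modified Wilcoxon-Mann-Whitney statistic from -0.5 to +0.5, computed with the Universal PBM Analysis Suite. Scale: above 0.35 generally sequence-specific binding.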

Sequence | PBM E-score
TCGTGGAA | -0.00643
CGAGATTA | 0.183
AAGAAGCC | 0.178
ACATTACT | -0.00641
GAGTAATA | 0.272
AGACTCTC | -0.0288
CCATTAAC | 0.153
CTGTGCGC | -0.102
TACCTAAA | 0.135
GGGCGGAC | 0.106
ATAACTGA | 0.21
TGGCACAA | -0.0828
GTTGAAAC | 0.109
CTTCACAC | 0.103
ATAGTAGG | 0.106
AGGTTCAA | 0.0608
CGTTTTGA | 0.0479
AGTTGAAA | 0.122
CCAGTGGA | -0.171
CCGACAAG | 0.115
ATATGTGA | 0.0554
CCCTCTCC | -0.24

Sequence | PBM E-score
CATCTGCG | -0.0835
CTCCGGGA | 0.436
AGATGCGA | 0.0111
CCAAGAGA | -0.157
GGTTCGGA | 0.423
CACGTTGA | 0.0377
TCTACAGA | -0.0602
ATTTAACC | 0.154
GTTTAGCA | -0.00747
ATGAGCGA | -0.155
AGCAAACG | -0.0413
ACCTCGGA | 0.404
AAGCGAGA | -0.0157
GACCCGGC | -0.147
GCGGCACA | -0.0392
AATAGCAC | -0.149
GCGTAGTA | -0.157
CAAATGAC | 0.0784
GTCATCAA | -0.0332
AACTCAAC | 0.0479
GCCAGGCC | -0.272
ACCTAAGG | -0.166

Sequence | PBM E-score
ATGGGATG | -0.0844
CTGGCACA | -0.333
ATTTTCGC | 0.0665
GCGCCTCC | 0.011
TAACTCCA | 0.143
CTAGCCGA | 0.00188
AAGACCGT | -0.0491
CTTATGGC | -0.0561
GTCCAACA | 0.0123
CTCGCTGC | -0.152
AGTCCCGA | -0.134
CACTTGTC | -0.15
GGGCTTTA | -0.27
ACGCTGAA | -0.0214
AGCATCAA | 0.0178
ACGTCCGG | 0.101
AACGTCAT | 0.129
AGTTAGGC | -0.0332
ATGCGTCA | -0.0306
GCCTAATA | -0.0305
CCTCATTC | 0.00298
TAGACCGA | 0.0639

Sequence | PBM E-score
CTATAAAA | 0.183
ATCGTATG | 0.054
CTGAACCC | -0.0401
CCAACGAA | -0.192
GAAGTTCC | -0.0651
GTACTCCA | -0.0426
GAATTCTA | 0.219
GCGACAAC | -0.023
AAGTAACC | 0.133
ATGTTGTC | -0.0587
CGAACCCC | 0.131
AGGTGCGC | -0.194
CCGGCGGC | 0.19
CCACAAGA | -0.0811
CACGACAC | -0.082
AGACACAC | -0.149
GGATAAAA | 0.252
ATAGCATG | -0.208
AGTTCAGG | -0.135
CGGGATAA | 0.107
